In all, about 310,000 compounds went through this assay and about 14,000 (4.5%) showed an effect of 50% or more. Effects have a minus sign here. The list shows a part of the results.
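Note: peak tail current of the secondary pulse compared with the same well before compound.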

Sequence of human ether-à-go-go-related gene (hERG) potassium channel (Q12809 whole entry, looked up): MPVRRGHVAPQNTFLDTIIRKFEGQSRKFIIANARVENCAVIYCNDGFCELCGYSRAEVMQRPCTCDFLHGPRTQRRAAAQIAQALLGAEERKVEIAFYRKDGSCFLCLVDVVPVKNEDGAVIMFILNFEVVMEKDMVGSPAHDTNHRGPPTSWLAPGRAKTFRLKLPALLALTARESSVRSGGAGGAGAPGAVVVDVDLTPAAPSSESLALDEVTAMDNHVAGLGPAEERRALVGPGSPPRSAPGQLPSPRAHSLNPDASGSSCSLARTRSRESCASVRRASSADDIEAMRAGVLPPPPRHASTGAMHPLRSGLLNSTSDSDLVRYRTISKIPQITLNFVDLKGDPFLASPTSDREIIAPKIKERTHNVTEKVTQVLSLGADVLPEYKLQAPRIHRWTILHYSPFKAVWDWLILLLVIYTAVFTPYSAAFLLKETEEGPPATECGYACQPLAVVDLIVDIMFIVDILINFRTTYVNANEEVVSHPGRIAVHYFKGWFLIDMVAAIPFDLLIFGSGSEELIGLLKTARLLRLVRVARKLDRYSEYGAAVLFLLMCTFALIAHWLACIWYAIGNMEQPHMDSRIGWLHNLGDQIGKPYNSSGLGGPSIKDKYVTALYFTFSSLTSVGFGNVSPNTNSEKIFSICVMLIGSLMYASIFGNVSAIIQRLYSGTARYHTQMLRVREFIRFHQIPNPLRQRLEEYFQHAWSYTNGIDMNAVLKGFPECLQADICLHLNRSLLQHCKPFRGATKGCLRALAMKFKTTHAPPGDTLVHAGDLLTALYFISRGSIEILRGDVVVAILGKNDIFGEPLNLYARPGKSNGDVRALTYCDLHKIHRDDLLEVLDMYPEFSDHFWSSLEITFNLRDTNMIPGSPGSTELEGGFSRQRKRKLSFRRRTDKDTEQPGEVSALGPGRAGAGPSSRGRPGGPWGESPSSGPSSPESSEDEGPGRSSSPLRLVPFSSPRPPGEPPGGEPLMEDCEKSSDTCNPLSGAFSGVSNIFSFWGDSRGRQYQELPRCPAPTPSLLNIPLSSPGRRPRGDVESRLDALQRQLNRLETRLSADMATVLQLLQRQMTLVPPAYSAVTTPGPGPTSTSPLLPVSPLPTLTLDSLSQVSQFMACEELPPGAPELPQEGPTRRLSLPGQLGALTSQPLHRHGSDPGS

The assay has as its target human ether-à-go-go-related gene (hERG) potassium channel (human, UniProt Q12809). Nature of the assay: primary screen, population patch clamp on CHO cells stably expressing hERG.
For the compound `O=S(=O)(NCc1cccs1)c1ccccc1Cl`, the “hERG current change (%, negative = inhibition) at 10uM” value is listed as -10.1%.

As to `CCOC(=O)C(C)Oc1cccc2c(=O)n(CC(=O)N3CCCc4ccccc43)ccc12` (centres unmarked), the “hERG current change (%, negative = inhibition) at 10uM” value was 17.5%. `COc1ccccc1[N+](=O)[O-]`: the “hERG current change (%, negative = inhibition) at 10uM” value came out at 18.6%. Then `COCCn1nnnc1C(c1ccc(Cl)cc1)N1CCN(C(=O)c2ccco2)CC1.Cl` (centres unmarked), with -22.4%. The value for `CCCCN(CC(=O)NC1CCCC1)C(=O)C(=O)Nc1ccc2c(c1)OCCO2` was 5.61%; that for `COc1ccccc1/C=C/C=N/NC(=O)c1ccccn1` was -5.65%; that for `CCCCN(CCCC)C(=S)NC(=O)c1ccccc1Cl` was 12.2%. The value for `Cc1ccc(C(=O)Cn2nnc3c(sc4nc5c(c(-c6ccccc6)c43)CCC5)c2=O)cc1` was 15.1%; that for `CCN(CC)S(=O)(=O)c1ccc(N2CCN(C)CC2)c(NC(=O)Nc2ccc(C)cc2)c1` was -12.2%; that for `O=[N+]([O-])c1ccc(C(=Nc2cccc3ccccc23)N2CCOCC2)cc1` was -63.5%. Regarding `Cc1cc(S(=O)(=O)Nc2cc(C)c(O)c(C)c2)c(C)s1`, the “hERG current change (%, negative = inhibition) at 10uM” value is reported as -11.9%. Regarding `Cc1ccc(C2CN(CCC(N)=O)C(=O)CO2)cc1` (centres unmarked), the “hERG current change (%, negative = inhibition) at 10uM” value was 1.94%.

Take `COCCNc1cc(NCCOC)c([N+](=O)[O-])cc1[N+](=O)[O-]`: the “hERG current change (%, negative = inhibition) at 10uM” value is reported as 4.6%. With `Cc1cc(/C=C2\SC(=S)NC2=O)c(C)n1-c1cccc(O)c1`, the “hERG current change (%, negative = inhibition) at 10uM” value is listed as 9.51%. In the case of `CCOC(=O)CN1C(=O)CC(c2ccc([N+](=O)[O-])cc2)C1=O` (centres unmarked), the “hERG current change (%, negative = inhibition) at 10uM” value is listed as -14.1%. Consider `COc1ccc2ccc3c(c2c1)N=CC1(O3)N(C)c2ccccc2C1(C)C` (centres unmarked), for which the “hERG current change (%, negative = inhibition) at 10uM” value is recorded as 3.92%. Then `CC1(C)N([O-])C(c2ccccc2)=C[N+](=O)C1(C)C`, with 1.38%; and `COc1ccc(NC(=O)Cc2c[nH]c3ccccc23)cc1S(=O)(=O)N1CCCCC1`, with -6.59%; and `Cc1ccc([N+](=O)[O-])cc1S(=O)(=O)Nc1ccc(-c2ccc(N3CCOCC3)nn2)cc1`, with -47.1%.

As for `CSC(C1CCCC1)n1nnc2ccccc21` (centres unmarked), the “hERG current change (%, negative = inhibition) at 10uM” value is -4.29%. With `COc1cccc(NC(=O)C/C(C)=N/NC(=O)c2ccccc2Cl)c1`, the “hERG current change (%, negative = inhibition) at 10uM” value is 2.44%. Then `C=CCn1c(O)c(C(C)=NCc2ccco2)c(=O)[nH]c1=O`, with -24.3%; and `O=[N+]([O-])c1cc(C(F)(F)F)ccc1N1CCN(S(=O)(=O)c2ccc3c(c2)CCCC3)CC1`, with -0.944%. As for `COc1ccc(N2CCN(C(=O)CSc3ccccc3)CC2)cc1`, the “hERG current change (%, negative = inhibition) at 10uM” value turned out to be 4.44%. Turning to `CCCNC(=O)c1cc(S(=O)(=O)N2CCCCC2)ccc1N1CCOCC1`, the “hERG current change (%, negative = inhibition) at 10uM” value is listed as -32.2%. The value for `C=CCC1(CC=C)CCCN1C(=O)c1cc(COc2cccc(C(F)(F)F)c2)on1` was 49.9%.

Turning to `CCc1ccc(NC(=O)Cn2nc(C(=O)O)c3ccccc3c2=O)cc1`, the “hERG current change (%, negative = inhibition) at 10uM” value is reported as 20.4%. Turning to `Cc1ccc(NC(=O)CC2SCCNC2=O)cc1Cl` (centres unmarked), the “hERG current change (%, negative = inhibition) at 10uM” value is recorded as -22.8%.

As for `CC(=O)c1c(C)[nH]c(C(=O)OCC(=O)Nc2cccc(S(=O)(=O)N3CCCC3)c2)c1C`, the “hERG current change (%, negative = inhibition) at 10uM” value is recorded as -3.92%.

`Cc1cc(C(=O)OCCN2C(=O)c3ccccc3C2=O)c2ccccc2n1`: the “hERG current change (%, negative = inhibition) at 10uM” value was -5.48%. For the compound `COc1ccc(-c2cn3c(C)c(C(=O)Nc4cccc(NC(C)=O)c4)sc3n2)cc1`, the “hERG current change (%, negative = inhibition) at 10uM” value came out at 11.3%.

For the compound `Cc1ccc2cc(/C=N/Nc3ccc(C(=O)O)cc3)c(Cl)nc2c1`, the “hERG current change (%, negative = inhibition) at 10uM” value is 20.3%. Then `Br.CCn1c2c(c(=N)c3c1CCC3)CCC2`, with 0.642%. `COc1cc(C2NC(=O)C(C#N)=C(Nc3cccc(C)c3)S2)ccc1O` (centres unmarked): the “hERG current change (%, negative = inhibition) at 10uM” value is reported as 22.5%. Then `CC(C)OC(=O)c1c(NC(=O)c2ccco2)sc2c1CCCCC2`, with 9.62%. In the case of `CCCCNC(=S)N/N=C1\C(=O)c2cccc3cccc1c23`, the “hERG current change (%, negative = inhibition) at 10uM” value is listed as -5.67%.

For the compound `COc1ccccc1NC(=O)NCC1(N(C)C)CCCCC1`, the “hERG current change (%, negative = inhibition) at 10uM” value is recorded as -1.31%. Then `CCn1cc(C(=O)NCc2cccs2)c(=O)c2ccc(C)nc21`, with 12.9%; and `O=C1NN=C(c2ccc(Br)cc2)CC1c1ccc(Cl)cc1` (centres unmarked), with 18.9%. Then `Nc1nc(Nc2ccccc2F)nc(N2CCCC2)c1[N+](=O)[O-]`, with 4.5%; and `COCCn1cc(C(=O)N2CCN(C)CC2)c2c3ccccc3n(C)c2c1=O`, with 9.52%. In the case of `O=C(c1ccc([N+](=O)[O-])cc1)N1CCN(C(=O)c2cccnc2)CC1`, the “hERG current change (%, negative = inhibition) at 10uM” value is on record as -15.7%.

On to `O=[N+]([O-])c1ccccc1/C=C/C=N/Nc1nc(N2CCCCC2)nc(N2CCCCC2)n1`, for which the “hERG current change (%, negative = inhibition) at 10uM” value is -12.2%. Consider `Cc1c(C(=O)OCC(=O)Nc2ccc(N3CCOCC3)cc2)oc2ccccc12`, for which the “hERG current change (%, negative = inhibition) at 10uM” value was found to be 2.26%. The value for `COc1ccc(C(C#N)Nc2ccccc2C)cc1` (centres unmarked) was -5.25%; that for `O=C(CN1CCc2ccccc21)NC(=O)NC1CCCCC1` was -8.81%; that for `CCNC(=S)N1CCC(C(=O)c2ccc3c(c2)OCCO3)CC1` was 9.57%. Then `COc1ccc(-c2c(-c3ccccc3)c(C(=O)C(=O)NCCCN(C)C)n3ccc4cc(OC)c(OC)cc4c23)cc1OC`, with -10.5%; and `C/C(=N\NC(=O)c1ccccc1C)c1ccc(NC(=O)c2cccs2)cc1`, with 6.4%.

Take `C=CCNC(=O)C12CCC(C)(C(=O)C1Br)C2(C)C` (centres unmarked): the “hERG current change (%, negative = inhibition) at 10uM” value is given as 15.4%. As for `Cc1cccc(NC(=O)C2CCCN(S(=O)(=O)c3cccs3)C2)c1C` (centres unmarked), the “hERG current change (%, negative = inhibition) at 10uM” value was found to be 8.15%. The value for `CCOC(=O)COC(=O)c1ccc(Oc2cc(C)nc(SC)n2)cc1` was -24.4%; that for `CS(=O)(=O)N1CCN(CC2CC3C=CC2C3)CC1.O=C(O)C(=O)O` (centres unmarked) was 5.01%. Regarding `O=C(Oc1cc(-c2ccccc2)no1)c1ccc(F)cc1`, the “hERG current change (%, negative = inhibition) at 10uM” value is -2.71%.

With `CCC(=O)Nc1cc(C(=O)O)ccc1Sc1ccc(Cl)cc1`, the “hERG current change (%, negative = inhibition) at 10uM” value is on record as -12%.

With `O=C(Nc1oc2ccccc2c(=O)c1-c1ccc(Br)cc1)c1ccco1`, the “hERG current change (%, negative = inhibition) at 10uM” value is on record as -52.5%.

(Values after publication PMC4336329 (PLoS ONE, 2015).)
